Four molecules from PubChem BioAssay (NCI) can be followed below.

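Values below derive from 48-hour exposures of cells grown in 96-well plates, with endpoints linearly interpolated between the two concentrations bracketing the appropriate inhibition level. The concentration for 50% growth inhibition is given as GI50. TGI is the concentration that stops growth completely.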 Bounds are passed on as bounds.

The test system of the experiment is NCI-H322M lung. Description: NCI anticancer screen, dose series, 48 h.

On to `C[C@@H]1CN(c2ccc3ncc(C#Cc4cncc(C(=O)Nc5ccc(CN6CCN(C)CC6)c(C(F)(F)F)c5)c4)n3n2)C[C@@H](C)O1`, for which the GI50 was 0.343 µM and the TGI is 0.926 µM.
On the same counts, the results for `CN(C(=O)c1ccc(C(C)(C)C)cc1)c1sc2c(c1C#N)CCC(=O)C2` are 13.7 µM and 38.1 µM.
For `Cc1ccc(C(=O)Nc2cc(-n3ccnc3C)cc(C(F)(F)F)c2)cc1C#Cc1cnc2cccnn12`, the GI50 is 7.74 µM and the TGI is greater than 29.3 µM.
On the same counts, the results for `O=C(/C=C/c1ccc(Br)cc1)c1nc2ccccc2n1Cc1ccc(Br)cc1` are greater than 100 µM and greater than 100 µM.
